PubChem BioAssay AID720709 (National Center for Advancing Translational Sciences (NCATS), 2013)
About 520 (0.14%) of roughly 360,000 compounds were called active. Inconclusive results, whose numbers are uncertain, are shown with a selection of clear calls. Calls follow the shape of the dose curve; as a rule, active = well fitted inhibition curve with a large enough effect; inconclusive = small, poorly fitted or top-dose-only effect; inactive = no such curve, though single readings can be large or run the other way. Potencies of inconclusive entries are left out as doubtful fits.

Target: Rap guanine nucleotide exchange factor 3 (Homo sapiens) (UniProt O95398)
UniProt O95398, sequence (O95398 whole entry, looked up): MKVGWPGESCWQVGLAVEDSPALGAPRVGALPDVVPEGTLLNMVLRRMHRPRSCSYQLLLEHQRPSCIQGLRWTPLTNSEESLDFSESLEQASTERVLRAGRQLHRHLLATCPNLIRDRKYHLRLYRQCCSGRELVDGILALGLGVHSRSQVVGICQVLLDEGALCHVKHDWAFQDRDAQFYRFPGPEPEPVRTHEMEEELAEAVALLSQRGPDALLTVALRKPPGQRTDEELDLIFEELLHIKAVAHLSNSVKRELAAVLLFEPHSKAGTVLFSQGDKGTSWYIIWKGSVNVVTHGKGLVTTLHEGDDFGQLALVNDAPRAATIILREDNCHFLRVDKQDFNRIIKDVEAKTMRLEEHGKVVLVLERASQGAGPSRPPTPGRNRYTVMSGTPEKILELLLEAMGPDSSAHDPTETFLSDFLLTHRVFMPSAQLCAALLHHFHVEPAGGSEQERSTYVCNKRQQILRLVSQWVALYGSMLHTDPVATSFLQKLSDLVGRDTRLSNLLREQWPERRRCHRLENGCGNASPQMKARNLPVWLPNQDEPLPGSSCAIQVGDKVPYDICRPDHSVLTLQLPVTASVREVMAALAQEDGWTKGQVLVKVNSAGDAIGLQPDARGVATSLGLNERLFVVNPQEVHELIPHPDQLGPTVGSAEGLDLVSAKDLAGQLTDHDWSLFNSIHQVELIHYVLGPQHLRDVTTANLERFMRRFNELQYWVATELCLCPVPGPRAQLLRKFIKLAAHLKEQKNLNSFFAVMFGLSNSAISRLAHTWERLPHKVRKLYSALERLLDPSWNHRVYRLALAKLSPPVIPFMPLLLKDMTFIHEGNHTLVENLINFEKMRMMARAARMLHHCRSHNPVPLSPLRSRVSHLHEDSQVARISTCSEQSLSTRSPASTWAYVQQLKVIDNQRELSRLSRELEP
Experiment: qHTS for Antagonist of cAMP-regulated guanine nucleotide exchange factor 3 (EPAC1): primary screen; also: nearly all actives have a fitted effect of over 50% in size;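 as to activity change, negative = inhibition: plate controls were vehicle for no effect and positive control for full effect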
Details: EPAC1 GEF assay, Rap1b-BODIPY-GDP exchange fluorescence; activity change, negative = inhibition: at 115 µM (top of the series)
Potency is read from the fitted curve at half-maximal effect; tags tell the direction and shape of the fitted curve.

SMILES	Potency	activity change, negative = inhibition
Cc1ccccc1S(=O)(=O)NC(=O)C1(C)CCN1C(=O)c1ccccc1CCc1ccccc1 (stereo unspecified)	inconclusive [inhibitor, partial curve]	
Cc1ccc(NC(=O)c2cc(S(=O)(=O)N3CCOCC3)cn2C)cc1F	inconclusive [inhibitor, single point]	
CCCCC(CC)CN=C(N)NC(N)=NCCCCCCN=C(N)NC(N)=NCC(CC)CCCC (stereo unspecified)	inconclusive [inhibitor, single point]	
CN1CCN(c2ccccc2NC(=O)c2ccccc2F)CC1	inconclusive [inhibitor, full curve, poor fit]	
O=C(Cc1ccccc1)NC(NCCCN1CCOCC1)(C(F)(F)F)C(F)(F)F	inconclusive [inhibitor, single point]	
Cc1[nH][nH]c(=O)c1C(c1ccc(-c2ccc(Cl)c(C(=O)O)c2)o1)c1c(C)[nH][nH]c1=O	inconclusive [inhibitor, single point]	
CCOC(=O)c1ccc(NC(=O)Cn2nnc(-c3ccccc3C)n2)cc1	inconclusive [inhibitor, single point]	
Cc1ccccc1C(=O)N/N=C/c1ccc(Sc2ccccn2)o1	inconclusive [inhibitor, partial curve, poor fit]	
C[C@@]12C(=O)Nc3ccc(F)cc3C(=O)N1[C@H]1c3cc(Br)ccc3OC[C@@H]1[C@@H]2c1ccccc1	inconclusive [inhibitor, single point]	
CC(C)N1CCN(S(=O)(=O)c2ccccc2)CC1	inconclusive [inhibitor, partial curve]	
Cc1cccc(NC(=S)NNc2cccc(Cl)c2)c1	inactive	
C=CCc1cc(OC)ccc1OCCOCCN1CCc2ccccc2C1	inconclusive [inhibitor, single point]	
CCN(CC)C(=O)c1cccc(NC(=O)c2cc(-c3ccccn3)nc3ccccc23)c1	inconclusive [inhibitor, single point]	
O=C(NCCCN1CCOCC1)c1cc(-c2cccc(Br)c2)nc2ccccc12	inconclusive [inhibitor, full curve, poor fit]	
Cc1cccc(C(=O)NC2CCN(C(=O)Nc3ccccc3C)CC2)c1	inconclusive [inhibitor, single point]	
CC(C)c1ccc(OCc2cccc(C(=O)N/N=C/c3cccnc3)c2)cc1	inconclusive [inhibitor, full curve]	
CCc1sc(/C=C(/C#N)C(N)=S)cc1[N+](=O)[O-]	inconclusive [inhibitor, partial curve]	
O=C(COC(=O)[C@@H]1CCCN1S(=O)(=O)c1ccccc1F)c1ccccc1	inconclusive [inhibitor, partial curve, poor fit]	
CCc1cc2c(SCC(=O)Nc3ncc(Cl)c(C)c3Cl)ncnc2s1	inconclusive [inhibitor, full curve, poor fit]	
O=C(Nc1ccc(OCC(F)(F)C(F)F)c(C(F)(F)F)c1)c1ccccc1O	inconclusive [inhibitor, full curve, poor fit]	
COc1ccccc1NS(=O)(=O)c1ccc(OC)c([N+](=O)[O-])c1		inconclusive: -18.8% [inhibitor]
COCCCn1c(SCc2cccc(OC)c2)nc2cc(OC)c(OC)cc2c1=N	inconclusive [inhibitor, single point]	

SMILES	Potency	activity change, negative = inhibition
COc1ccc(S(=O)(=O)N(C)C[C@@H]2OCCCC[C@H](C)Oc3ccc(NC(=O)Nc4ccc(C(F)(F)F)cc4)cc3C(=O)N([C@H](C)CO)C[C@H]2C)cc1	inconclusive [inhibitor, single point]	
Cc1ccc(S(=O)(=O)N2[C@H](CC(=O)c3ccc(F)cc3)OC[C@@H]2C)cc1	inactive	
C/C(=N\NC(=S)Nc1ccc(C)c(C)c1)c1ccc(N2CCOCC2)cc1	inactive	
COc1cccc(NC(=O)CN(C)C(=O)c2ccccc2CCc2ccccc2)c1	inconclusive [inhibitor, partial curve]	
S=c1[nH]nc(-c2cc(-c3ccccc3)n[nH]2)n1/N=C/c1ccc(Br)s1	inconclusive [inhibitor, partial curve]	
CCO[C@H]1OC(C(=O)Nc2ccccc2)=C[C@@H](c2csc3ccccc23)[C@@H]1CCCO	inactive	
Cc1cccc(/C=N/n2c(-c3ccncc3)n[nH]c2=S)c1	inconclusive [inhibitor, partial curve, poor fit]	
COc1ccccc1/C=C/C=N/NC(=O)c1ccccn1	inactive	
COC(Cn1c2c(c3cc(C)ccc31)CCCC2NCc1ccccc1)OC (stereo unspecified)	inconclusive [inhibitor, full curve, poor fit]	
Cn1cc(CCC(=O)N2CCCC(Nc3ccc(F)cc3)C2)cn1 (stereo unspecified)	inconclusive [inhibitor, partial curve]	
O=c1cc(CSc2nnc(Nc3ccccc3F)s2)nc2sccn12	inconclusive [inhibitor, full curve]	
Nc1ccc(SC(F)(F)F)cc1C(=O)c1ccccc1	inconclusive [inhibitor, partial curve]	
O=C(CCOc1ccccc1)OCC(=O)c1cc2ccccc2o1	inconclusive [inhibitor, single point]	
CCCCCCCCCCCCCCCC[N+](C)(C)Cc1ccc(F)cc1	inactive	
Cc1cc2oc(=O)cc(CN3CCCCC3C)c2cc1C(C)C (stereo unspecified)	inconclusive [inhibitor, single point]	
CN(CC(=O)Nc1ccccc1Cl)C(=O)COC(=O)c1ccc(Cl)nc1	inactive	
O=C(N/N=C/C=C/c1ccc([N+](=O)[O-])cc1)C1COc2ccccc2O1 (stereo unspecified)	inconclusive [inhibitor, single point]	
O=C(CNC(=O)c1cccc(F)c1)OCC(=O)N1CCCc2ccccc21	inactive	
Cc1ccc(N(Cc2ccccc2)C(=O)c2cc(S(=O)(=O)N3CCOCC3)ccc2C)cc1	inconclusive [inhibitor, single point]	
O=C(COc1ccccc1/C=C\c1[nH]c(=O)[nH]c(=O)c1[N+](=O)[O-])Nc1ccccc1	inconclusive [inhibitor, full curve]	
COc1ccc(/C=C/C(=O)Nc2cccc(F)c2)cc1S(=O)(=O)N1CCOCC1	inconclusive [inhibitor, partial curve]	
Cc1ccc(C(=O)NC(=S)N(C)C2CCCCC2)cc1	inactive	

SMILES	Potency	activity change, negative = inhibition
N#C/C(=N\Nc1cc(Cl)cc(Cl)c1)c1nnc2n1CCCCC2	inactive	
COc1cccc(-n2c(CN3CCN(c4ccccc4)CC3)nc3ccc([N+](=O)[O-])cc3c2=O)c1	inconclusive [inhibitor, partial curve]	
COc1cccc(N2CCN(C(=O)c3oc4ccccc4c3NC(=O)Cc3ccc(OC)c(OC)c3)CC2)c1	inconclusive [inhibitor, full curve]	
COc1ccc(CNC(=O)Nc2nc(C(N)Cc3ccc(Cl)cc3)cs2)cc1 (stereo unspecified)	inactive	
CCn1c2ccccc2c2cc(NC(=O)C3CCN(S(=O)(=O)c4cccs4)CC3)ccc21	inconclusive [inhibitor, single point]	
O=C(OCc1ccccc1)c1c(-c2ccccc2)oc2c1C(OCCO)CCC2 (stereo unspecified)	inconclusive [inhibitor, single point]	
O=CN1N=C(c2ccccc2)CC1c1ccc(Cl)cc1 (stereo unspecified)	inconclusive [inhibitor, full curve, poor fit]	
O=C(OCCC1Oc2cccnc2NC1=O)c1ccc(F)cc1 (stereo unspecified)	inconclusive [inhibitor, full curve]	
O=C(COc1ccc(C(=O)NCC2CCCO2)cc1)Nc1cccc(C(F)(F)F)c1 (stereo unspecified)	inconclusive [inhibitor, single point]	
CC1=NN(c2ccccc2)C(=O)C1/C=C1\NC(=S)NC1=O (stereo unspecified)	inconclusive [inhibitor, full curve]	
CCCCc1ccc(-c2csc(/C(C#N)=C\c3ccco3)n2)cc1	inconclusive [inhibitor, full curve]	
NS(=O)(=O)c1ccc(N=Nc2c(-c3ccccc3)[nH]n(-c3nc(-c4ccccc4)cs3)c2=O)cc1	inconclusive [inhibitor, full curve]	
COc1ccc(Cn2cc(CN3CC(N(C)C)CS3(=O)=O)nn2)cc1 (stereo unspecified)	inactive	
CCOc1ccc(/C=C/C(=O)Oc2ccc(OC)cc2)cc1	inactive	
O=C(CCl)N(O)c1ccc(C=Cc2ccccc2)cc1	inactive	
COCCSc1nnc(NC(=O)c2cc(C(=O)OC)cc([N+](=O)[O-])c2)s1	inactive	
O=C(NNc1nc2ccccc2s1)C1CC1	inactive	
O=C(NN1CC(=O)N(c2cc(Cl)cc(Cl)c2)CC1=O)c1cccs1	inconclusive [inhibitor, full curve, poor fit]	
COc1cc(Br)c(/C=C/c2ccc3cccc(O)c3n2)cc1OC	inactive	
Cc1onc(-c2ccccc2)c1CNC(=O)Nc1cccc(Cl)c1	inconclusive [inhibitor, full curve, poor fit]	
COc1ccc(Cn2c(-c3ccc(OC)cc3)n[nH]c2=S)cc1	inconclusive [inhibitor, single point]	
NS(=O)(=O)c1ccc(-c2ccc(/C=C3\NC(=S)NC3=O)o2)cc1	inconclusive [inhibitor, single point]	
